Assay results reported in the supplement of paper PMC4967469.
The IC50 comes from the fitted curve, where viability falls to half of the control; where the fit passes the top or lowest dose, that dose stands as a limit. AUC is the area under the same curve over the 256-fold range up to the top dose, as a fraction: 1 means no effect, lower means more sensitive. For part of these data: The top dose, if marked as inferred, was derived from the fitted curves, not read from the paper. For part of these data: An entry number marks a drug with two screens in the source, which often give different values.

What was measured:
Assay in all cases: Viability of human cancer cell lines after 72 h of drug (GDSC screen)
[1] = compound: CC(C)[C@H](C(=O)Nc1ccc(C(=O)NO)cc1)c1ccccc1 [AR-42]; settings: top dose 5.12 µM; top dose inferred
Procedure: (§1)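 Human cancer cell lines in 384-well plates, medium with 10% serum, drug for 72 h over a 256-fold dose range (nine 2-fold or five 4-fold steps up to the top dose). Adherent lines were fixed and stained with the nucleic acid dye Syto60, suspension lines read with resazurin; signal relative to control wells, capped at 0 and 100%. One two-parameter sigmoid per drug and line, fitted in a mixed model over all curves with the slope shared within a line.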

[2] = compound: C[C@]12O[C@H](C[C@]1(O)CO)n1c3ccccc3c3c4c(c5c6ccccc6n2c5c31)CNC4=O [CEP-701]; settings: top dose 2 µM; top dose inferred
Procedure: as §1

[3] = compound: Cn1cc(C2=C(c3ccc(Cl)cc3Cl)C(=O)NC2=O)c2ccccc21 [SB 216763]; settings: top dose 10 µM; top dose inferred
Procedure: as §1

[4] = compound: CS(=O)(=O)N1CCN(Cc2cc3nc(-c4cccc5[nH]ncc45)nc(N4CCOCC4)c3s2)CC1 [GDC0941]; settings: top dose 4 µM; screen: GDSC drug entry 1527; top dose inferred
Procedure: as §1

[5] = compound: Cc1ccc(Nc2nccc(N(C)c3ccc4c(C)n(C)nc4c3)n2)cc1S(N)(=O)=O [Pazopanib]; settings: top dose 8 µM
Procedure: as §1

Cell Line: NY (osteosarcoma, adherent)
- AUC [1]: 0.954
- IC50 [1]: > 5.12 µM
- AUC [2]: 0.682
- IC50 [2]: 0.401 µM
- AUC [3]: 0.961
- IC50 [3]: > 10 µM
- AUC [4]: 0.875
- IC50 [4]: 3.84 µM
- AUC [5]: 0.716
- IC50 [5]: 2.02 µM

Cell Line: HT-3 (cervix, adherent)
- AUC [1]: 0.565
- IC50 [1]: 0.482 µM
- AUC [2]: 0.695
- IC50 [2]: 0.444 µM
- AUC [3]: 0.983
- IC50 [3]: > 10 µM
- AUC [4]: 0.85
- IC50 [4]: 3.1 µM
- AUC [5]: 0.987
- IC50 [5]: > 8 µM

Cell Line: DBTRG-05MG (glioma, adherent)
- AUC [1]: 0.721
- IC50 [1]: 1.53 µM
- AUC [2]: 0.751
- IC50 [2]: 0.761 µM
- AUC [3]: 0.972
- IC50 [3]: > 10 µM
- AUC [4]: 0.8
- IC50 [4]: 2.33 µM
- AUC [5]: 0.931
- IC50 [5]: > 8 µM

Cell Line: EGI-1 (biliary tract, adherent)
- AUC [1]: 0.805
- IC50 [1]: 3.55 µM
- AUC [2]: 0.692
- IC50 [2]: 0.514 µM
- AUC [3]: 0.905
- IC50 [3]: > 10 µM
- AUC [4]: 0.813
- IC50 [4]: 3.02 µM
- AUC [5]: 0.97
- IC50 [5]: > 8 µM

Cell Line: NCI-H2342 (lung adenocarcinoma, adherent)
- AUC [1]: 0.868
- IC50 [1]: > 5.12 µM
- AUC [2]: 0.941
- IC50 [2]: > 2 µM
- AUC [3]: 0.986
- IC50 [3]: > 10 µM
- AUC [4]: 0.601
- IC50 [4]: 0.488 µM
- AUC [5]: 0.712
- IC50 [5]: 2.12 µM

Cell Line: LoVo (large intestine, adherent)
- AUC [1]: 0.745
- IC50 [1]: 1.62 µM
- AUC [2]: 0.334
- IC50 [2]: 0.043 µM
- AUC [3]: 0.889
- IC50 [3]: > 10 µM
- AUC [4]: 0.685
- IC50 [4]: 0.827 µM
- AUC [5]: 0.87
- IC50 [5]: 7.58 µM

Cell Line: OSC-20 (head and neck, adherent)
- AUC [1]: 0.562
- IC50 [1]: 0.488 µM
- AUC [2]: 0.696
- IC50 [2]: 0.498 µM
- AUC [3]: 0.98
- IC50 [3]: > 10 µM
- AUC [4]: 0.683
- IC50 [4]: 0.905 µM
- AUC [5]: 0.902
- IC50 [5]: > 8 µM

Cell Line: NCI-H2029 (small cell lung carcinoma, adherent)
- AUC [1]: 0.531
- IC50 [1]: 0.385 µM
- AUC [2]: 0.911
- IC50 [2]: > 2 µM
- AUC [3]: 0.989
- IC50 [3]: > 10 µM
- AUC [4]: 0.984
- IC50 [4]: > 4 µM
- AUC [5]: 0.992
- IC50 [5]: > 8 µM

Cell Line: NCI-H1755 (lung adenocarcinoma, adherent)
- AUC [1]: 0.408
- IC50 [1]: 0.172 µM
- AUC [2]: 0.569
- IC50 [2]: 0.198 µM
- AUC [3]: 0.969
- IC50 [3]: > 10 µM
- AUC [4]: 0.707
- IC50 [4]: 1.06 µM
- AUC [5]: 0.884
- IC50 [5]: > 8 µM

Cell Line: Mewo (melanoma, adherent)
- AUC [1]: 0.652
- IC50 [1]: 0.92 µM
- AUC [2]: 0.713
- IC50 [2]: 0.571 µM
- AUC [3]: 0.98
- IC50 [3]: > 10 µM
- AUC [4]: 0.831
- IC50 [4]: 3.24 µM
- AUC [5]: 0.923
- IC50 [5]: > 8 µM

Cell Line: NCI-H1563 (lung adenocarcinoma, adherent)
- AUC [1]: 0.794
- IC50 [1]: 2.86 µM
- AUC [2]: 0.894
- IC50 [2]: > 2 µM
- AUC [3]: 0.985
- IC50 [3]: > 10 µM
- AUC [4]: 0.621
- IC50 [4]: 0.573 µM
- AUC [5]: 0.975
- IC50 [5]: > 8 µM

Cell Line: RPMI-2650 (head and neck, adherent)
- AUC [1]: 0.478
- IC50 [1]: 0.278 µM
- AUC [2]: 0.729
- IC50 [2]: 0.598 µM
- AUC [3]: 0.975
- IC50 [3]: > 10 µM
- AUC [4]: 0.888
- IC50 [4]: > 4 µM
- AUC [5]: 0.944
- IC50 [5]: > 8 µM

Cell Line: WM1552C (melanoma, adherent)
- AUC [1]: 0.62
- IC50 [1]: 0.689 µM
- AUC [2]: 0.889
- IC50 [2]: > 2 µM
- AUC [3]: 0.98
- IC50 [3]: > 10 µM
- AUC [4]: 0.838
- IC50 [4]: 2.74 µM
- AUC [5]: 0.919
- IC50 [5]: > 8 µM

Cell Line: JVM-3 (lymphoid neoplasm, suspension)
- AUC [1]: 0.469
- IC50 [1]: 0.264 µM
- AUC [2]: 0.412
- IC50 [2]: 0.0716 µM
- AUC [3]: 0.958
- IC50 [3]: > 10 µM
- AUC [4]: 0.785
- IC50 [4]: 1.74 µM
- AUC [5]: 0.985
- IC50 [5]: > 8 µM

Cell Line: AsPC-1 (pancreas, adherent)
- AUC [1]: 0.654
- IC50 [1]: 1.16 µM
- AUC [2]: 0.788
- IC50 [2]: 1.71 µM
- AUC [3]: 0.963
- IC50 [3]: > 10 µM
- AUC [4]: 0.618
- IC50 [4]: 0.663 µM
- AUC [5]: 0.932
- IC50 [5]: > 8 µM

Cell Line: PE/CA-PJ15 (head and neck, adherent)
- AUC [1]: 0.75
- IC50 [1]: 1.79 µM
- AUC [2]: 0.907
- IC50 [2]: > 2 µM
- AUC [3]: 0.923
- IC50 [3]: > 10 µM
- AUC [4]: 0.723
- IC50 [4]: 1.14 µM
- AUC [5]: 0.986
- IC50 [5]: > 8 µM

Cell Line: Ca-Ski (cervix, adherent)
- AUC [1]: 0.537
- IC50 [1]: 0.408 µM
- AUC [2]: 0.528
- IC50 [2]: 0.15 µM
- AUC [3]: 0.982
- IC50 [3]: > 10 µM
- AUC [4]: 0.676
- IC50 [4]: 0.827 µM
- AUC [5]: 0.946
- IC50 [5]: > 8 µM

Cell Line: KP-3 (pancreas, adherent)
- AUC [1]: 0.765
- IC50 [1]: 2.23 µM
- AUC [2]: 0.8
- IC50 [2]: 1.18 µM
- AUC [3]: 0.983
- IC50 [3]: > 10 µM
- AUC [4]: 0.89
- IC50 [4]: > 4 µM
- AUC [5]: 0.943
- IC50 [5]: > 8 µM

Cell Line: HuCCT1 (biliary tract, adherent)
- AUC [1]: 0.655
- IC50 [1]: 0.907 µM
- AUC [2]: 0.717
- IC50 [2]: 0.556 µM
- AUC [3]: 0.981
- IC50 [3]: > 10 µM
- AUC [4]: 0.734
- IC50 [4]: 1.27 µM
- AUC [5]: 0.947
- IC50 [5]: > 8 µM

Cell Line: WM-115 (melanoma, adherent)
- AUC [1]: 0.622
- IC50 [1]: 0.751 µM
- AUC [2]: 0.834
- IC50 [2]: 1.73 µM
- AUC [3]: 0.945
- IC50 [3]: > 10 µM
- AUC [4]: 0.802
- IC50 [4]: 2.5 µM
- AUC [5]: 0.776
- IC50 [5]: 3.95 µM

Cell Line: JEG-3 (urogenital system, adherent)
- AUC [1]: 0.991
- IC50 [1]: > 5.12 µM
- AUC [2]: 0.775
- IC50 [2]: 0.712 µM
- AUC [3]: 0.985
- IC50 [3]: > 10 µM
- AUC [4]: 0.915
- IC50 [4]: > 4 µM
- AUC [5]: 0.914
- IC50 [5]: > 8 µM

Cell Line: COLO-684 (endometrium, suspension)
- AUC [1]: 0.789
- IC50 [1]: 2.58 µM
- AUC [2]: 0.761
- IC50 [2]: 0.793 µM
- AUC [3]: 0.977
- IC50 [3]: > 10 µM
- AUC [4]: 0.757
- IC50 [4]: 1.54 µM
- AUC [5]: 0.973
- IC50 [5]: > 8 µM

Cell Line: NCI-H1693 (lung adenocarcinoma, adherent)
- AUC [1]: 0.475
- IC50 [1]: 0.262 µM
- AUC [2]: 0.966
- IC50 [2]: > 2 µM
- AUC [3]: 0.969
- IC50 [3]: > 10 µM
- AUC [4]: 0.813
- IC50 [4]: > 4 µM
- AUC [5]: 0.903
- IC50 [5]: > 8 µM

Cell Line: A2780 (ovary, semi-adherent)
- AUC [1]: 0.516
- IC50 [1]: 0.355 µM
- AUC [2]: 0.521
- IC50 [2]: 0.143 µM
- AUC [3]: 0.985
- IC50 [3]: > 10 µM
- AUC [4]: 0.808
- IC50 [4]: 2.15 µM
- AUC [5]: 0.862
- IC50 [5]: 7.28 µM
